Data as given in the BET-seq Pho4 binding data (Le et al. 2018).
The other results are listed elsewhere or left out. The energies were worked out here from pooled read counts, against the library average; single values are noisy.

Molecular target: T1, Pho4 (S. cerevisiae) (UniProt P07270)
T1 sequence: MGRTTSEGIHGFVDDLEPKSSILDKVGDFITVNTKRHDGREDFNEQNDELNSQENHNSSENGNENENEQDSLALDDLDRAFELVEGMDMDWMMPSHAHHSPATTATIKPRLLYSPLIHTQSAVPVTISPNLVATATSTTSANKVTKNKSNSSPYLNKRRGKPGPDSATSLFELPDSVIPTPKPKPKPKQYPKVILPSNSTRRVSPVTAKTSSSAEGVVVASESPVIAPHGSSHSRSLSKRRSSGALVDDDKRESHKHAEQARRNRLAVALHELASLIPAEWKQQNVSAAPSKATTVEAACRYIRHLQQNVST
Assay: relative binding free energy (BET-seq); higher = weaker binding
Settings: reference: library average

Sequence	relative binding free energy [kJ/mol]
GTGGGCACGTGACGCT	0.377
TTTGACACGTGTAAAG	0.795
TGACGCACGTGATTGT	0.0837
TATAACACGTGGGAAT	-0.293
AAGGCCACGTGTCGGG	-0.46
GTGAACACGTGCGGCG	0.0837
TTGGGCACGTGGACTA	-0.293
TGTTACACGTGTGAAT	0.962
AAATGCACGTGTAAAG	0.377
GGGGCCACGTGAGGCT	-0.0418
TGTTTCACGTGGCACT	0.502
GCTGGCACGTGTGCGT	-0.711
TAATGCACGTGATGAG	0.335
AAGTTCACGTGACGAG	1.63
AATGGCACGTGTAGTT	-0.418
AAGGGCACGTGTGGAC	-0.669
GGAGGCACGTGCAGTT	-0.586
GCATGCACGTGGTGGC	0.0837
TCTAGCACGTGTTAGT	-0.209
CAGGGCACGTGGCAGG	-0.795
CTGTTCACGTGACGGT	1.34
GGGGTCACGTGGAAAA	1.17
CTGGTCACGTGATTTA	1
TCATGCACGTGTAGGG	-0.377
GGTAGCACGTGGGCTA	-0.92

Sequence	relative binding free energy [kJ/mol]
TGCGTCACGTGAACGG	1.26
ATAATCACGTGGGAGG	0.502
GTTATCACGTGAAAGG	1.3
TCTGTCACGTGTGCTT	0.418
TGCCGCACGTGTTGTT	-0.711
CGTTGCACGTGCGGAT	0.251
CATGGCACGTGTGTCG	-0.335
GTATCCACGTGGGGGG	-0.0418
CGTGGCACGTGTGAGA	-0.335
AATGTCACGTGGCAGG	-0.46
ATATTCACGTGAGGTC	1.67
TTTGTCACGTGACGAT	0.753
TTGGTCACGTGTCTAG	0.962
GGATCCACGTGGTTGT	-0.335
GTGGGCACGTGGGAGG	-0.377
TTGTCCACGTGGATAG	0.0418
ATCGGCACGTGCGGTG	0.209
TTAAGCACGTGCATGG	-0.962
GGGGTCACGTGTCAAA	0.795
TTATTCACGTGTAGGT	1.76
AGCTACACGTGTGAGT	1.09
AGTAGCACGTGGGTAG	-1.13
AGATTCACGTGACGTG	1.3
GTCATCACGTGGGTTT	0.377
TGTGTCACGTGCAGCT	-0.0418

Sequence	relative binding free energy [kJ/mol]
GAGGTCACGTGGATTC	1.46
TGTTGCACGTGAGATA	0.795
GTATTCACGTGCATTA	0.711
TTTAACACGTGTATTA	-0.126
GGGTGCACGTGTCGTG	0.0837
GCAGTCACGTGAGGGA	1.21
TAACTCACGTGGGGAG	1
GGGGGCACGTGATCGA	-0.502
CTTTGCACGTGTATTA	0.0418
TCTTACACGTGTGTGT	0.837
TTTGCCACGTGTGCAT	-0.126
GTTGACACGTGTATGT	0.335
ATTAACACGTGGAGTA	0.209
GTTGTCACGTGCTGAA	0.0837
TCTTTCACGTGATGGT	1.34
GTCTACACGTGGGTGT	0.0837
CTTCGCACGTGTGGGG	-0.209
CTGGTCACGTGCAGTG	0.628
ACGTGCACGTGGGTAG	-0.544
GTTATCACGTGTCGGT	0.962
AGTGACACGTGTGGGT	0.0837
TTAGGCACGTGTCATA	-0.46
TATTACACGTGATTGG	0.962
ATTAACACGTGGTGTA	-0.335
TATTGCACGTGCGTGG	-0.418

Sequence	relative binding free energy [kJ/mol]
GAGTCCACGTGGGCGG	0.126
GCTCTCACGTGTTTGT	1.17
GTGTTCACGTGCAGCG	1.76
TAAATCACGTGGAGAG	0.669
TTTATCACGTGGACTT	0.251
CTTTGCACGTGGGCAA	-0.293
AGGTTCACGTGATGAA	1.59
GTGTGCACGTGCCTGT	0.251
GGAGGCACGTGAGCGG	0.544
TGGGTCACGTGGTCCA	0
TTACTCACGTGGGGGT	0.251
AAGTGCACGTGGAGGT	-0.377
AATCTCACGTGTATGG	1
TTGGTCACGTGCGTTT	0.502
GAAGTCACGTGTGTAT	0.879
ATTTTCACGTGCTTAT	0.837
GGTGACACGTGTAGTT	0.92
AGGTTCACGTGCCGTG	0.418
TAGGCCACGTGGAGGA	-0.251
GGTTCCACGTGAAGGG	1.13
TTTTACACGTGTGAGA	0.669
CTGGGCACGTGGCAAT	-0.251
ATGTACACGTGATTAT	1.09
GTGGGCACGTGAGATC	1.17
TTTTCCACGTGGATGT	0.0837

Sequence	relative binding free energy [kJ/mol]
CTAGTCACGTGGGTGG	-0.251
AGTAACACGTGACGTG	0.126
AATGACACGTGTGAGG	0.502
GAAGACACGTGGGGTC	-0.126
TAGATCACGTGCTAGT	0.293
TGCGGCACGTGCGGAG	-1.05
AAGGGCACGTGAGTGG	0.293
AACGACACGTGAGTGG	1.13
TATAGCACGTGGGGTC	-0.502
GTTTGCACGTGGCTAT	-0.0418
ATTTTCACGTGTACGT	1.09
TTTTTCACGTGGCGCG	0.126
GGGCTCACGTGGGTCT	1.3
TGTTCCACGTGACGGT	0.544
TGGCTCACGTGTTGGC	0.879
CGTATCACGTGGTTGC	0.126
TCATGCACGTGTACGG	0.502
CGGGTCACGTGATTAT	0.837
GTTTGCACGTGTGCTA	0
ATGGCCACGTGTATGG	0.0418
TTGATCACGTGGGCCT	0.335
CGCTGCACGTGAGAGG	1.21
GGGGGCACGTGGAGGA	-0.628
GTTTGCACGTGGAGAG	0.795
TAATTCACGTGGATCT	1.21

Sequence	relative binding free energy [kJ/mol]
TGTGTCACGTGGCTCT	-0.251
ATGTACACGTGTTGAG	-0.126
AGCTTCACGTGTGAGG	1.34
GCGGCCACGTGGGTGC	-0.46
TTTGTCACGTGCGAGT	0.837
GAAAACACGTGTGTTG	0.0837
GTGTGCACGTGGTGTC	0.167
ACTTTCACGTGATGTT	0.962
AGTAGCACGTGCTGCG	-0.251
AAGTACACGTGGATGG	0.502
CGGGACACGTGTGTAG	-0.0837
TTGCGCACGTGCGTGG	-1.21
GTGCTCACGTGTTTGG	1.17
AATAACACGTGTGTAT	0.251
GTTATCACGTGAAAAT	2.22
TGCTTCACGTGGATGT	0.46
TTTAGCACGTGGCGGG	-0.669
AAGTTCACGTGCGATG	0.795
GCCGACACGTGGGTGG	0.126
GGTTACACGTGAGTCG	1.34
TTAAACACGTGGTGAG	-0.0837
